The structures appear in SMILES notation. Screen size: about 50,000 compounds; about 800 (1.6%) showed an effect of 50% or more. This is one part of the list.

Among the data in PubChem BioAssay AID1240 (Sanford-Burnham Center for Chemical Genomics, 2008) are displacement values, retold here.

In this test the target is Bcl-2-like protein 10 (Homo sapiens) (UniProt Q9HD36). Description: Phenotype converters, Bcl-B/TR3 peptide binding displacement, primary biochemical FP (AID 1240).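 Further: 0% = Bcl-B with tracer peptide and DMSO and 100% = tracer peptide lacking Bcl-B.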 Particulars: GST-Bcl-B / FITC-TR3 peptide fluorescence polarization; stronger effect = higher value; compound at 3.75 mg/L.
UniProt Q9HD36, sequence (Q9HD36 whole entry, looked up): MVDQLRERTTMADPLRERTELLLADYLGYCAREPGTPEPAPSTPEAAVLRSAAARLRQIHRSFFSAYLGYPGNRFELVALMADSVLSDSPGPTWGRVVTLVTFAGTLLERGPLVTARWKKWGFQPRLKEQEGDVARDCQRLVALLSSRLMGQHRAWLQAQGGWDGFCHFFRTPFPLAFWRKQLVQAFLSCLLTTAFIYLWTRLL
For `COc1ccc(Cl)cc1C(=O)Nc1cccc(C)n1`, the displacement was found to be 3.5%.

Turning to `CCOC(=O)c1c(C)oc2c(F)c(C(F)(F)F)c(F)c(F)c12`, the displacement was 13.9%.

Regarding `CCc1ccccc1N(CC(=O)Nc1ccccc1C(=O)OC)S(C)(=O)=O`, the displacement is -0.1%.

Turning to `CC1CC(=O)NN=C1c1ccc(N)c(N)c1` (configuration not stated), the displacement amounted to 3.9%.

Turning to `CCC(CC)NCc1cc(Br)ccc1OC`, the displacement is 11.9%.

Regarding `CCOc1cccc(/C=N\N2CCN(c3ccccc3OC)CC2)c1O`, the displacement was -4.6%.

Consider `O=C(Nc1ccc(O)cc1)c1cccc(N2C(=O)c3cccc([N+](=O)[O-])c3C2=O)c1`, for which the displacement stood at 11.4%.

`CCOC(=O)CSc1nc2sc3c(c2c(=O)n1CC)CC(C)(C)OC3`: the displacement is 2.9%.

For `O=c1[nH]cc(N=Cc2cc(Br)ccc2O)c(=O)[nH]1`, the displacement worked out at 42.9%.

Take `Cc1cc(C)c(C(N)=O)c(Nc2ccc(C3CCCCC3)cc2)n1`: the displacement is -3.9%.

For the compound `COC(=O)C(=O)c1c[nH]c2ccccc12`, the displacement is 12%.

Regarding `O=C1C(=O)N(Cc2ccccc2)C(c2ccc(Br)cc2)/C1=C(/O)c1ccccc1` (configuration not stated), the displacement was determined as 4.7%.

With `O=c1oc(-c2ccco2)nc2ccccc12`, the displacement stood at 15.9%.

For the compound `CCC(=NCCCn1ccnc1)c1c(C(F)(F)F)[nH]n(-c2nc3ccccc3s2)c1=O`, the displacement is -6.7%.

On to `CN(C)/C=C/C=C/C(=O)c1cccc(C(=O)/C=C/C=C/N(C)C)c1O`, for which the displacement was -19.7%.

On to `COc1ccc(OCC(=O)Nc2ccc3c(c2)OCO3)cc1`, for which the displacement turned out to be 2.4%.

Take `CC1=C(C(=O)Nc2cccc(Cl)c2C)C(c2ccc(Cl)cc2)NC(=S)N1` (configuration not stated): the displacement was found to be 5.6%.

For the compound `CCCn1c(=O)c(C(=O)Nc2cccc(C)c2)c(O)c2ccccc21`, the displacement worked out at 2.6%.

Turning to `Cc1ccc(C(=O)N2CCN(c3ccc([N+](=O)[O-])cc3Cl)CC2C)o1` (configuration not stated), the displacement worked out at 16.3%.

`CC12c3ccccc3C(C)(c3ccccc31)C1C(=O)N(c3ccc(C(=O)O)cc3)C(=O)C12` (configuration not stated): the displacement turned out to be 14.2%.

Regarding `O=C(CSc1nc2ccc([N+](=O)[O-])cc2[nH]1)c1ccc2ccccc2c1`, the displacement was 13%.

Regarding `CCc1ccc(-c2cc(C(=O)N3CCN(C)CC3)c3ccccc3n2)cc1`, the displacement is -7.2%.

Consider `Cc1cc(S(N)(=O)=O)ccc1NC(=O)c1sc2ccccc2c1Cl`, for which the displacement is -3%.

Take `Cc1ccc(S(=O)(=O)N(C)C)c(C)c1N1CCc2cnn(S(=O)(=O)c3ccc(Cl)cc3)c21`: the displacement came out at 31.1%.

Take `COC(=O)c1ccc(NC(=O)C2c3ccccc3Oc3ccccc32)cc1`: the displacement was -4%.

For the compound `O=C(Nc1ccccc1C(=O)Nc1ccc(Cl)cc1)c1ccco1`, the displacement is -2.4%.

`O=c1[nH]c(/C=C/c2ccc3c(c2)OCO3)nc2ccccc12`: the displacement was 31.8%.

With `Cc1ccc(Cl)cc1NC(=O)CN(c1cccc([N+](=O)[O-])c1)S(=O)(=O)c1ccccc1`, the displacement worked out at 15.2%.

As for `COc1ccccc1N1CCN(/N=C/c2cccc(C)c2)CC1`, the displacement came to 8.5%.

In the case of `Cc1ccc(S(=O)(=O)N2CCCC(C)C2)cc1` (configuration not stated), the displacement was -11%.

For `COC(=O)CCC(=O)Nc1ccc([N+](=O)[O-])cc1C`, the displacement is 14.7%.

`COc1ccccc1CN1CCN(C(=O)c2cccs2)CC1`: the displacement is 1.2%.

On to `CCOc1ccc(NC(=O)/C=C/c2ccc(C)o2)cc1`, for which the displacement is 13.3%.

On to `O=C(COC(=O)c1ccc(Cl)c([N+](=O)[O-])c1)c1ccc(Cl)cc1`, for which the displacement came out at 3.3%.

Take `COc1ccc(N2C(=O)CC(NC3CCCC3)C2=O)cc1` (configuration not stated): the displacement was -10.9%.

Turning to `O=c1c2ccccc2c2c1nc1c(=O)c3ccccc3c(=O)n12`, the displacement worked out at 2.4%.

For the compound `CCCC(=O)Nc1ccc(NC(=O)c2ccc(C)c(C)c2)cc1`, the displacement was -4%.

As to `CCN(CC)C(=O)c1ccccc1NC(=O)c1ccccc1Cl`, the displacement worked out at 4.5%.

With `COc1ccc(CCNC(=O)CCN2C(=O)c3ccccc3C2=O)cc1OC`, the displacement was -7.3%.

Regarding `Cc1ccc(OCC(=O)N/N=C\c2cc(Cl)cc(Br)c2O)cc1`, the displacement is 7.2%.

With `CC(=O)Nc1cccc(-c2nc3ccccc3s2)c1`, the displacement stood at 10.3%.

With `Cc1ccc(-n2[nH]c(C)c(C=Nc3ccc(S(=O)(=O)Nc4nccs4)cc3)c2=O)cc1C`, the displacement was -0.2%.

In the case of `Cc1ccc2[nH]c(O)c(N=Nc3ccc([N+](=O)[O-])cc3)c2c1`, the displacement was -0.9%.

Consider `Cc1[nH]c2ccccc2c1/C=N/Nc1ccc([N+](=O)[O-])cc1`, for which the displacement was -23.3%.

In the case of `COc1ccc(CN2CCN(Cc3cccn3C)CC2)c(OC)c1OC`, the displacement came out at 5.4%.

Take `O=C(Nc1ccc(Cl)cn1)S(=O)(=O)c1ccccc1`: the displacement was determined as 8.3%.

Turning to `Cc1cccc(OCC(=O)O/N=C(\N)Cc2cccc3ccccc23)c1`, the displacement is 45.6%.

As to `O=C(N/N=C/c1cccc([N+](=O)[O-])c1)C(Oc1ccccc1)Oc1ccccc1`, the displacement is 11.1%.

As for `Cc1cc(C)c(S(=O)(=O)NCc2ccc3c(c2)OCO3)c(C)c1`, the displacement is -5.9%.

In the case of `O=C(CCn1c2ccccc2c2ccccc21)N/N=C/c1ccccc1`, the displacement came out at 6.9%.

In the case of `Cc1ccc(NC(=O)c2cccc(F)c2)c(C)c1`, the displacement is 10.4%.

Regarding `O=C1C(=O)N(c2cccnc2)C(c2ccc3c(c2)OCO3)/C1=C(\O)c1ccc(Cl)cc1` (configuration not stated), the displacement is -18.1%.

Take `O=C(COc1ccccc1)Nc1ccc(Cl)c(-c2nc3ccccc3s2)c1`: the displacement was 15.4%.

As to `COc1cc(CN=Cc2c(O)n(-c3cc(OC)ccc3OC)c(=O)[nH]c2=O)cc(OC)c1`, the displacement came out at 1.6%.

`CC1=C(C(=O)OCc2ccccc2)C(c2cccc(F)c2)C2=C(CCCC2=O)N1` (configuration not stated): the displacement came out at 6.3%.

As to `Cc1ccccc1CN1CCN(C2CCCC2)CC1`, the displacement is -23.3%.

Take `CCOc1ccccc1NC(=O)c1c(NC(=O)c2ccccc2F)sc2c1CCCC2`: the displacement is -2.4%.

Consider `Cc1ccc(OCC(=O)O/N=C(\N)c2ccc([N+](=O)[O-])cc2)cc1`, for which the displacement was 12.4%.

Turning to `O=C(NCCCCc1ccccc1)C1CC(=O)N(c2ccc(Br)cc2)C1` (configuration not stated), the displacement amounted to 1.1%.

Take `COc1cccc(N2C(=O)C(=O)/C(=C(\O)c3ccccc3)C2c2ccc(Cl)cc2)c1` (configuration not stated): the displacement stood at 4.9%.

Regarding `CC1(C)CC(=O)C2=C(C1)c1c(ccc3ccccc13)NC2c1cc2c(cc1Cl)OCO2` (configuration not stated), the displacement was 10.5%.

Consider `CCOc1cc(/C=C2\SC(=S)NC2=O)ccc1OS(=O)(=O)c1ccc([N+](=O)[O-])cc1`, for which the displacement came out at 10.8%.

`COc1ccc(C2/C(=C(\O)c3ccccc3)C(=O)C(=O)N2CCCC(=O)O)cc1OC` (configuration not stated): the displacement worked out at 1.7%.

For the compound `CCOC(=O)COc1ccc(/C=C2/C(=O)NN(c3ccc(I)cc3)C2=O)cc1OC`, the displacement was 4%.

For the compound `COc1ccc(Cl)cc1NC(=O)C1=C(C)NC(=S)NC1c1ccc([N+](=O)[O-])cc1` (configuration not stated), the displacement was determined as 1.2%.

As to `CCOC(=O)c1c(NC(=O)c2ccc(OCC(C)C)cc2)sc2c1CC(C)(C)OC2`, the displacement was -3.4%.

Consider `CCCCC(=O)Nc1ccc(C2C(=O)c3ccccc3C2=O)cc1`, for which the displacement is -4.8%.

Regarding `COc1ccc(N(CC(=O)Nc2ccccc2C)S(C)(=O)=O)cc1Cl`, the displacement is -10.4%.

For `O=C(Nc1ccccc1)Nc1ccc(S(=O)(=O)N2CCc3ccccc32)cc1`, the displacement is -5.1%.

As for `O=[N+]([O-])c1ccc(Cl)c(-n2ncnc2-c2ccccc2C(F)(F)F)c1`, the displacement is -12%.

Take `CCCCN(CCCC)S(=O)(=O)c1ccc(I)cc1`: the displacement amounted to 3.9%.

In the case of `Cc1cccc(NC(=O)CSc2nc(C)cc(C)n2)c1`, the displacement is -2.1%.

`Cc1ccccc1C(=O)Nc1sc2c(c1C(=O)N1CCN(C)CC1)CCCCC2`: the displacement was -11.3%.

For `CCOC(=O)CNC(c1ccccc1)c1cc(Br)ccc1N` (configuration not stated), the displacement was found to be 16%.

For `C=CCN1C(=O)/C(=C\c2ccc(-c3cc(Cl)cc(Cl)c3)o2)SC1=S`, the displacement was 1.7%.

With `CCC(=O)N1N=C2c3cc(OC)ccc3CCC2C1c1ccc(N(C)C)cc1` (configuration not stated), the displacement was 2.5%.

In the case of `O=C(CN(Cc1ccccc1)S(=O)(=O)c1ccccc1)Nc1cccc2ccccc12`, the displacement is 1.3%.

Take `COC(=O)CCN1C(=O)/C(=C/c2ccc(Cl)cc2Cl)SC1=S`: the displacement was -2%.

As to `COc1ccccc1-n1c(C=C2C(=O)N(C)c3ccccc32)nc2ccccc2c1=O`, the displacement was -10.8%.

On to `O=C(Nc1nccs1)C1COc2ccccc2O1` (configuration not stated), for which the displacement was -5.8%.

For `Cc1ccc2c(c1)c1c(n2C)C(=O)CCC1`, the displacement was -0.7%.

For `CCC(CC)C(=O)Nc1ccc(OC)cc1[N+](=O)[O-]`, the displacement is 1.8%.

Turning to `Clc1ccccc1C=NN1CCN(Cc2ccccc2Cl)CC1`, the displacement was -2.4%.

For the compound `O=C(Nc1ccc(-c2nc3ccccc3s2)c(O)c1)c1cc2ccccc2oc1=O`, the displacement turned out to be 5.3%.

For `CCOc1ccc(-c2nc3cc(NC(=O)c4ccccc4F)ccc3o2)cc1`, the displacement was -3.2%.

In the case of `CCc1ccc(/C(C)=N/Nc2cc(-c3ccccc3)nc(C)n2)cc1`, the displacement was -8.4%.

For `COc1cc([N+](=O)[O-])ccc1-c1ccc(/C=C2\C(=O)NC(=O)N(c3ccccc3)C2=O)o1`, the displacement is 132%.

With `O=C(CN1CCCCC1)Nc1nc2ccccc2s1`, the displacement was -0.5%.

As for `O=C(O)CCCCCN1C(=O)C(=O)/C(=C(/O)c2ccccc2)C1c1ccc(F)cc1` (configuration not stated), the displacement was -9.8%.

As to `CCCOC(=O)C1=C(C)NC2=C(C(=O)CCC2)C1c1ccc(Cl)cc1Cl` (configuration not stated), the displacement is -8.1%.

Turning to `Fc1ccc(CSc2nc3ncccc3[nH]2)cc1`, the displacement was found to be 11.6%.

For the compound `COc1cccc(OCCCNC(C)(C)C)c1`, the displacement is -0.7%.

For the compound `CCc1ccc2oc(-c3cccc(NC(=O)c4ccc(Br)o4)c3)nc2c1`, the displacement came to 6.3%.

As for `O=C1NCC(c2ccccc2)C1C(=O)N/N=C\c1cc([N+](=O)[O-])cc(Br)c1O` (configuration not stated), the displacement was determined as 5.6%.

`COc1cc(/C=C2\SC(N3CCCC3)=NC2=O)cc(OC)c1OC`: the displacement was -15.6%.

On to `CCCCOc1ccc(S(=O)(=O)N2CCN(C)CC2)cc1`, for which the displacement is -1.5%.

Take `O=c1c(C=NCCCO)c(-c2ccccc2)[nH]n1-c1nc2ccccc2s1`: the displacement is -4.6%.

Regarding `CCOc1cccc(N2C(=O)CC(SC(=NCc3ccc(OC)cc3)Nc3ccccc3)C2=O)c1` (configuration not stated), the displacement was -6.4%.

Turning to `COc1cc(/C=C2/SC(=S)N(CC(=O)O)C2=O)cc(Cl)c1O`, the displacement is -66.1%.

With `Cc1cc(OCC(=O)Nc2ccc(N3CCOCC3)cc2)cc(C)c1Cl`, the displacement was 14.7%.

On to `Cc1cccc(C(=O)NNC2=CC(=O)CC(C)(C)C2)c1O`, for which the displacement was 37.5%.

Regarding `CCN=C1SC(CC(=O)Nc2ccccc2C#N)C(=O)N1CC` (configuration not stated), the displacement is 1.1%.

Consider `CCCOc1ccc(C2Nc3cccc4cccc(c34)N2)cc1`, for which the displacement was 10.6%.

Regarding `Cc1ccc(Nc2nc(-c3ccc(S(=O)(=O)N4CCCCC4)cc3)cs2)cc1Cl`, the displacement is -3.5%.

Turning to `CC1(C)NC(=O)N(CC(O)CN(c2ccccc2)S(=O)(=O)c2ccccc2)C1=O` (configuration not stated), the displacement is -30.7%.

In the case of `Cc1cc(/C=N/NC(=O)c2cccnc2)c(C)n1-c1ccccc1`, the displacement was -22.4%.

As to `COC(=O)c1cc(NC(=O)c2ccccc2OC)cc(C(=O)OC)c1`, the displacement is -5.9%.
